Measurements as given in the supplement of paper PMC12217912.
The other results are listed elsewhere or left out. The full chains were built here from the parent and the listed change. Values near 0.05 are background.

B1: TEV protease; numbered along this chain (parent)
chain: MGESLFKGPRDYNPISSSICHLTNESDGHTTSLYGIGFGPFIITNKHLFRRNNGTLVVQSLHGVFKVKDTTTLQQHLVDGRDMIIIRMPKDFPPFPQKLKFREPQREERICLVTTNFQTKSMSSMVSDTSCTFPSGDGIFWKHWIQTKDGQCGSPLVSTRDGFIVGIHSASNFTNTNNYFTSVPKNFMELLTNQEAQQWVSGWRLNADSVLWGGHKVFMVKPEEPFQPVKEATQL

Variants of: B1
Test: raw area under fraction-flipped curve 0-4 h after induction (AUC4h, not background-subtracted), DNA-recorder readout of cleavage of the substrate (dimensionless); higher = more cleavage of the substrate by the protease variant
Details: temperature: 34 °C; time window: 0-4 h after rhamnose induction
Experimental: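 In vivo DNA recorder in E. coli TOP10(DE3) ΔrhaA at 34 °C. Each TEVp single-site mutant (parent TEVp 0) is paired with a single-site variant of the 7-mer TEVs (canonical ENLYFQ|S). The substrate sits between flexible linkers in a Bxb1-sfGFP-TEVs-SsrA fusion, so cleavage stabilises Bxb1 and speeds flipping of a recombination array, read by NGS. The value is the raw area under the fraction-flipped curve over 0-4 h after rhamnose induction (AUC4h), with ≥20 reads per time point. It is not background-subtracted; inactive controls average about 0.047.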
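Also: Bxb1 expression induced with 0.2% (w/v) L-rhamnose at OD600 near 0.5, cultures sampled hourly, flipped fraction per protease–substrate barcode pair counted by paired-end Illumina sequencing.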

Variant | area with substrate ENLYFAS | area with substrate ENLYFCS | area with substrate ENLYFDS | area with substrate ENLYFES | area with substrate ENLYFGS | area with substrate ENLYFHS | area with substrate ENLYFIS | area with substrate ENLYFKS | area with substrate ENLYFMS | area with substrate ENLYFRS | area with substrate ENLYFTS | area with substrate ENLYFFS | area with substrate ENLYFLS | area with substrate ENLYFPS | area with substrate ENLYFVS | area with substrate ENLYFWS | area with substrate ENLYFYS | area with substrate ENLYFNS | area with substrate ENLYFSS
M122L | 0.0698 | 0.0693 | 0.0538 | 0.0792 | 0.0469 | 0.0573 | 0.0726 | 0.0645 | 0.0777 | 0.0583 | 0.0614 |  |  |  |  |  |  |  | 
M122W | 0.0561 | 0.0543 | 0.0609 | 0.0619 |  |  | 0.0572 | 0.0659 | 0.0543 |  | 0.043 | 0.0534 | 0.0688 | 0.0578 | 0.0442 | 0.0543 | 0.0616 |  | 
Q151L | 0.058 | 0.0588 | 0.0723 |  |  | 0.0621 | 0.0395 | 0.0591 | 0.0725 |  | 0.0592 |  | 0.0401 | 0.0418 |  | 0.056 | 0.0571 | 0.0447 | 
Q151C | 0.0619 | 0.0511 | 0.0596 |  |  | 0.0551 | 0.0636 | 0.0682 | 0.0577 | 0.0589 | 0.0539 | 0.0663 |  | 0.0626 |  | 0.0694 | 0.0568 |  | 0.0594
Q151W | 0.0502 | 0.0454 | 0.0528 | 0.0517 |  | 0.0618 | 0.0474 | 0.0514 | 0.0549 | 0.0625 | 0.0563 | 0.0641 | 0.0594 |  | 0.0689 | 0.0613 |  | 0.0677 | 0.0609
Q151I | 0.0633 |  | 0.0589 | 0.0753 | 0.0536 | 0.0588 | 0.0602 | 0.0775 | 0.06 | 0.0662 | 0.062 | 0.0691 | 0.0292 | 0.0546 | 0.058 | 0.0524 | 0.0582 | 0.0657 | 0.0502
L156I | 0.0413 |  | 0.0539 | 0.0448 |  |  | 0.0544 | 0.0616 | 0.0601 | 0.0534 | 0.0617 | 0.0627 |  | 0.0569 | 0.0881 | 0.0537 |  | 0.0665 | 0.0446
L156M | 0.0638 | 0.0592 | 0.0637 | 0.073 | 0.075 | 0.0659 | 0.0614 |  | 0.0436 | 0.0679 | 0.0582 | 0.0764 |  | 0.0663 |  | 0.0634 |  |  | 0.0571
L156D | 0.0462 | 0.0512 |  | 0.0616 |  |  | 0.0466 | 0.0574 |  | 0.05 |  | 0.0585 | 0.0553 | 0.0427 | 0.0404 | 0.0646 | 0.0661 | 0.0586 | 
I139M | 0.0494 | 0.0566 | 0.0598 | 0.065 |  | 0.0562 | 0.056 | 0.0708 | 0.0792 |  | 0.0491 | 0.0695 | 0.0437 | 0.0272 | 0.0581 | 0.0619 | 0.0595 |  | 
I139F | 0.0683 |  | 0.0763 | 0.0678 | 0.0738 |  | 0.054 | 0.0556 | 0.059 | 0.041 |  | 0.0561 |  | 0.0501 | 0.053 |  | 0.0593 | 0.0727 | 0.0649
I139Y | 0.0643 | 0.0568 | 0.0462 | 0.0597 |  |  | 0.0666 | 0.0658 | 0.0801 | 0.0585 |  | 0.0688 |  | 0.06 | 0.0565 | 0.0624 | 0.0618 | 0.0667 | 
